Reference: PubChem BioAssay AID938 (National Center for Advancing Translational Sciences (NCATS), 2007)
Screen size: about 73,000 compounds; about 1,800 (2.5%) were called active. Inconclusive results (about 13%) are left out. Calls come from the whole dose curve; as a rule, active = well fitted activation curve with a large enough effect; inconclusive = small, poorly fitted or top-dose-only effect; inactive = no such curve, though single readings can be large or run the other way. The entries are a selection whose mix differs from that of the whole data set.

Test: qHTS Assay for Agonists of the Thyroid Stimulating Hormone Receptor: Activators of Intracellular cAMP Concentrations in Parental HEK 293; note: nearly all actives have a fitted effect of over 55% in size; for activation: % of control where 0% means no effect
Details: parental HEK293 CNG cAMP sensor, membrane potential fluorescence; series mostly up to 57.1 µM; activation: at the top concentration
Summary of the method: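 Parental HEK 293 cells stably expressing a modified CNG channel (no TSHR) report cAMP rise as membrane depolarization. Membrane potential dye with 100 uM RO 20-1724 was loaded for 60 min at room temperature, then compound added for 30 min; fluorescence read at 590 nm.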
Potency is the fitted concentration of half-maximal effect.

| SMILES | Potency | activation |
| --- | --- | --- |
| COc1ccc(C(=O)N2CCC3(CCCN(c4ccncc4)C3)CC2)cc1 | active: 12.6 µM | – |
| COc1ccc2cc3cc(C(=O)Nc4ccccc4N4CCN(C)CC4)oc3nc2c1 | – | inactive: -68.4% |
| CCOc1ccc(NC(=O)c2nnn(CC(=O)Nc3ccccc3OCC)c2N)cc1 | – | inactive: -5.12% |
| CC(C)[N+](C)(CCOC(=O)C1c2ccccc2Oc2ccccc21)C(C)C | – | inactive: 5.53% [at 25.6 µM] |
| BrC/C=C/CBr | – | inactive: 24.5% |
| CCCCN(CC)S(=O)(=O)c1cccc2cccnc12 | active: 20 µM | – |
| CC1=NN(c2ccccc2)C(=O)C1 | inactive | – |
| O=C(N[C@H](CO)[C@H](O)c1ccc([N+](=O)[O-])cc1)C(Cl)Cl | – | inactive: 12.7% |
| CCN(CC)CCOC(=O)c1cc(Cl)c(N)cc1OC | – | inactive: 1.01% |
| Cc1cc(NC(=O)CS(=O)(=O)c2cn(Cc3ccccc3Cl)c3ccccc23)no1 | active: 25.1 µM | – |
| Oc1cccc(Nc2ccccc2)c1 | – | inactive: -17.2% |
| COc1ccccc1-c1nc(NCc2cccnc2)c2ccccc2n1 | – | inactive: -54.4% |
| COCCn1c(C(=O)N2CCCC2)cc2c1C[C@H]1CN(C(=O)c3ccccc3)[C@@](Cc3ccc(F)cc3)(C(=O)OC)[C@@H]21 | active: 12.6 µM | – |
| CO[C@H]1/C=C/O[C@@]2(C)Oc3c(C)c(O)c4c(O)c(c5c(c4c3C2=O)NC2(CCN(CC(C)C)CC2)N=5)=NC(=O)/C(C)=C\C=C\[C@H](C)[C@H](O)[C@@H](C)[C@@H](O)[C@@H](C)[C@H](OC(C)=O)[C@@H]1C | – | inactive: -86.6% |
| C[C@@H](C(=O)NCc1ccccn1)[C@@H]1C[C@@]1(C)[C@@H](NC(=O)OCc1ccccc1)c1ccccc1 | – | inactive: 23% |
| Oc1ccc2cc(SSc3ccc4cc(O)ccc4c3)ccc2c1 | – | inactive: 6.27% |
| CN/C(=C\[N+](=O)[O-])NCCSCc1ccc(CN(C)C)o1 | inactive | – |
| CCOC(=O)N1CCN(C(=O)c2ccc3c(=O)n(-c4ccc(OC)cc4OC)c(=S)[nH]c3c2)CC1 | – | inactive: -1.15% |
| CC(=O)[C@H](CC(C)C)NC(=O)[C@@H](CC(C)C)NC(=O)[C@H](CC(C)C)NC(=O)OCc1ccccc1 | active: 25.1 µM | – |
| CCCCCCO | – | inactive: -18.3% |
| O=C1[C@H]2[C@H]3[C@H](O)[C@H](O)C/C(=N/OCc4ccccc4)[C@H]3CC[C@@H]2C(=O)N1C[C@@H]1CCCO1 | – | inactive: -7.4% [at 11.4 µM] |
| Cc1cccc(N2CCN(C(=O)c3ccc(CS(=O)(=O)c4ccccc4C)o3)CC2C)c1 (stereo not given) | active: 25.1 µM | – |
| Cn1c(=O)c(C(=O)CN2CCOCC2)c(N)n(Cc2ccccc2)c1=O | – | inactive: 12.3% |
| ON=C1CCCCC1 | – | inactive: -28.8% |
| O=C(Nc1ccc(F)cc1)c1ccc(S(=O)(=O)NCC2CCCO2)cc1 (stereo not given) | active: 3.16 µM | – |

| SMILES | Potency | activation |
| --- | --- | --- |
| Cc1cccn2c(=O)c3cc(C(=O)NC4CCCC4)c(=N)n(C4CCCC4)c3nc12 | – | inactive: -55.4% |
| O=C(Cl)c1cccc([N+](=O)[O-])c1 | – | inactive: -16.2% |
| COc1cccc(-c2nnc(SCc3ccc(C#N)cc3)n2Cc2ccco2)c1 | active: 6.31 µM | – |
| COc1ccc2nc3c(c(-c4ccccc4)c2c1)CCC3 | active: 25.1 µM | – |
| CCCc1cc(=O)[nH]c(SCC(=O)NC(=O)OCC)n1 | – | inactive: 3.38% |
| O=C(c1cc(C(F)(F)F)cc(C(F)(F)F)c1)N1CCC2(CC1)CCN(c1ccncc1)CC2 | active: 3.16 µM | – |
| CCNc1cc(O)ccc1C | – | inactive: -32.7% |
| CCCCCCCC/C=C\CCCCCCCC(=O)N(CCO)CCO | – | inactive: -15.6% |
| CCOC(=O)CCCNC(=O)CN1C(=O)NC2(CCCCCC2)C1=O | – | inactive: 1.68% |
| O=C(c1cc2cc(Cl)ccc2oc1=O)N1CCOCC1 | – | inactive: -53.2% |
| O=C(O)c1cc(=O)c2c(Cl)cc(Cl)cc2[nH]1 | – | inactive: 11.3% |
| O=C(Nc1nc2c(s1)CCCC2)c1cc2n(n1)C(C(F)(F)F)CC(C1CC1)N2 (stereo not given) | – | inactive: -20% |
| Cn1cc(C(=O)c2ccc(Cl)cc2)cc1-c1nc2ccccc2n1C | active: 31.6 µM | – |
| CCC(Oc1ccccc1)C(=O)Nc1ccccc1OC (stereo not given) | active: 31.6 µM | – |
| Cc1ccc(S(=O)(=O)Nc2ccc(Br)cc2/C=N/n2cnnc2)cc1 | – | inactive: -33.3% |
| CSc1nc(N2CCOCC2)c2c(c1C#N)CCCCC2 | active: 25.1 µM | – |
| O=c1c(-c2cccs2)nc2cnc(N3CCNCC3)nc2n1CCc1ccccc1 | – | inactive: -35.7% |
| COc1ccc(CCNc2oc(-c3ccco3)nc2C#N)cc1 | – | inactive: 4.46% |
| CC(=O)c1c(NC(=O)C(C)C)nc(C)nc1-c1ccccc1 | – | inactive: 13.1% [at 11.4 µM] |
| CC1(C)S[C@@H]2[C@H](NC(=O)[C@H](N)c3ccccc3)C(=O)N2[C@H]1C(=O)O | – | inactive: -41.7% |
| O=C1C=C(N2CCN(c3ccccn3)CC2)C(=O)c2c(O)ccc(O)c21 | – | inactive: -37.1% [at 11.4 µM] |
| Oc1ccc(-c2nc(-c3ccc(F)cc3)c(-c3ccncc3)[nH]2)cc1 | – | inactive: -39.8% |
| CCN(CCNC(=O)C1CCN(Cc2nc(-c3ccc(Cl)cc3)oc2C)CC1)c1ccccc1 | – | inactive: -50.2% |
| NC(=O)CNC(=O)C1CCCc2c1[nH]c1ccc(Cl)cc21 (stereo not given) | – | inactive: -48.1% |
| COc1ccc2cc([C@H](C)C(=O)O)ccc2c1 | – | inactive: 23.2% [at 25.6 µM] |

| SMILES | Potency | activation |
| --- | --- | --- |
| O=C(COc1ccc2ccccc2c1CN1CCOCC1)N1CCc2ccccc21 | – | inactive: -36% |
| Cc1cc(C)c(C)c(S(=O)(=O)NCc2cccnc2)c1C | – | inactive: 10.4% |
| CC(C)=CCC/C(C)=C/CO/N=C1/C[C@@H](O)[C@@H](O)[C@@H]2[C@@H]3C(=O)N(C(C)(C)C)C(=O)[C@H]3CC[C@@H]12 | – | inactive: -2.67% [at 11.4 µM] |
| Cc1c(-c2ccc(Cl)cc2)noc1C1CCN(CCc2ccccc2)CC1 | – | inactive: -34.7% |
| CCCn1c(=O)c2[nH]c(C3CCCC3)nc2n(CCC)c1=O | – | inactive: 2.49% |
| O=C(CCNNC(=O)c1ccncc1)NCc1ccccc1 | – | inactive: -2.05% [at 25.6 µM] |
| COc1ccc(OCC(O)Cn2c(=N)n(Cc3ccccc3)c3ccccc32)cc1 (stereo not given) | – | inactive: -38.5% |
| CCCCC[C@H](O)/C=C/[C@H]1[C@H](O)CC(=O)[C@@H]1C/C=C\CCCC(=O)O | active: 0.01 µM | – |
| COC(=O)c1ccc(N2CCN(C)CC2)c(NC(=O)c2cc3ccccc3o2)c1 | – | inactive: -39.5% |
| CCCC(C)CO (stereo not given) | – | inactive: -9.56% |
| C=CCn1c(SC/C=C/c2ccccc2)nnc1-c1sc(N)nc1C | – | inactive: 12.7% |
| CCN(CCNC(=O)C1CCN(Cc2nc(-c3cccc(Cl)c3)oc2C)CC1)c1ccccc1 | – | inactive: -63% |
| CC1CN(C(=O)c2cc(F)c(F)cc2Cl)CC(C)O1 (stereo not given) | – | inactive: -33.9% |
| O=C(Nc1cccc(C(=O)Nc2ccc(S(=O)(=O)O)c3cc(S(=O)(=O)O)cc(S(=O)(=O)O)c23)c1)Nc1cccc(C(=O)Nc2ccc(S(=O)(=O)O)c3cc(S(=O)(=O)O)cc(S(=O)(=O)O)c23)c1 | – | inactive: 1.29% |
| c1ccc(-c2ccc(N3CCCC4(CCNCC4)C3)cc2)cc1 | – | inactive: -53.5% |
| CC(C)C(c1nnnn1Cc1ccc(F)cc1)N1CCN(C2CCCCC2)CC1 (stereo not given) | – | inactive: -60.1% |
| C=CCCCCCC | – | inactive: 2.49% |
| CCc1nc(N2CCCC(C)C2)c2oc3ccccc3c2n1 (stereo not given) | active: 15.8 µM | – |
| N[C@@H](CS(=O)O)C(=O)O | – | inactive: 10.8% |
| CC(C)CO/N=C1/C[C@@H](O)[C@@H](O)[C@@H]2[C@@H]3C(=O)N(Cc4ccccc4)C(=O)[C@H]3CC[C@@H]12 | – | inactive: -3.83% [at 11.4 µM] |
| Cc1ccc(S(=O)(=O)NC2CCCCC2)cc1 | – | inactive: 50% |
| CN(C)c1cc(N)c2ccccc2n1 (tested in a mixture with another compound) | – | inactive: -92.1% |
| CCOC(=O)Cc1csc(NC(=O)CSc2nc(C)cc(=O)[nH]2)n1 | – | inactive: -43.7% |
| CCOC(=O)CN1CC23C=CC(O2)C(C(=O)NCc2ccc(C)cc2)C3C1=O (stereo not given) | – | inactive: 6.02% |
| Cc1cc(NC(=O)Nc2ccc3c(ccn3C)c2)sn1 | – | inactive: -12.1% |

| SMILES | Potency | activation |
| --- | --- | --- |
| BrC(Br)C(Br)Br | – | inactive: -10.9% |
| COC(=O)c1ccccc1 | – | inactive: 3.39% |
| CC(NC(=O)c1ccco1)C(=O)Nc1nc(-c2ccccn2)cs1 (stereo not given) | – | inactive: 0.851% |
| COC(=O)[C@H]1C[C@@H]1[C@H](NC(=O)OCc1ccccc1)c1ccccc1 | – | inactive: 20.8% |
| C[C@@H](C(=O)NCCc1c[nH]c2ccccc12)[C@@H]1C[C@@]1(C)[C@@H](NC(=O)OCc1ccccc1)c1ccccc1 | – | inactive: 14.5% |
| C[C@@]12CC[C@@H]3c4ccc(O)cc4CC[C@H]3[C@H]1CC[C@H]2O | – | inactive: -7.11% [at 25.6 µM] |
| CCOC(=O)c1[nH]c2ccc(F)cc2c1NC(=O)CN1CCN(C/C=C/c2ccccc2)CC1 | – | inactive: -96.9% |
| OC1CCCC1 | – | inactive: -19% |
| CCC1CCCCN1C(=O)COC(=O)c1cc2ccccc2cc1O (stereo not given) | active: 31.6 µM | – |
| COc1cccc(OC)c1-c1nnc(-c2cn(C)c3ccccc23)o1 | active: 20 µM | – |
| Cc1ccc(-c2nnc(N3CCN(C(=O)CN4CCOCC4)CC3)c3ccccc23)cc1 | – | inactive: 0.964% |
| O=C(Nc1ccccc1Oc1ccccc1)c1ccc(Br)o1 | – | inactive: 86.7% [at 11.4 µM] |
| O=C1CN(/N=C/c2ccc([N+](=O)[O-])o2)C(=O)N1 | – | inactive: -12.4% |
| O=C(c1cc(C(F)(F)F)cc(C(F)(F)F)c1)N1CCC2(CC1)CCN(c1ccccn1)CC2 | active: 15.8 µM | – |
| CC(C)C(OC(=O)c1ccco1)C(=O)NCc1ccccc1 (stereo not given) | active: 25.1 µM | – |
| C[C@@H](N)C1CCC(C(=O)Nc2ccncc2)CC1 (stereo not given in full) | – | inactive: -6.71% |
| CCCC[C@@H]1C[C@H]1C(NC(=O)c1ccccc1)c1ccc(C(F)(F)F)cc1 (stereo not given in full) | active: 3.16 µM | – |
| COC(=O)c1c(C)[nH]c(C)c1C(=O)c1ccccc1Cc1ccccc1 | – | inactive: 5.21% |
| C/C(C=O)=C/c1ccccc1 | – | inactive: 33.5% |
| C=CCn1c(C)cc(C(=O)CSc2nnc(NCc3ccccc3)s2)c1C | – | inactive: 49.6% |
| CC(=O)OC(C)C | – | inactive: 5.44% |
| NCCSSCCN | – | inactive: 8.16% [at 11.4 µM] |
| N#CCCn1c(=O)c(-c2ccccc2)nc2cnc(Nc3ccccc3)nc21 | active: 10 µM | – |
| O=C(CSc1nnc(-c2ccncc2)n1C1CCCCC1)Nc1ccccc1 | – | inactive: 4.69% |
| C#C[C@]1(O)CC[C@H]2[C@@H]3CCc4cc(O)ccc4[C@H]3CC[C@@]21C | – | inactive: -18.6% |
